Experimental data reported in publication PMC4336329 (PLoS ONE, 2015).
In all, about 310,000 compounds went through this assay and about 2,200 (0.71%) showed an effect of 50% or more. Effects have a minus sign here. This is one part of the list.

Target: human ether-à-go-go-related gene (hERG) potassium channel (human, UniProt Q12809)
Test: primary screen, population patch clamp on CHO cells stably expressing hERG

Chain of human ether-à-go-go-related gene (hERG) potassium channel (Q12809 whole entry, looked up): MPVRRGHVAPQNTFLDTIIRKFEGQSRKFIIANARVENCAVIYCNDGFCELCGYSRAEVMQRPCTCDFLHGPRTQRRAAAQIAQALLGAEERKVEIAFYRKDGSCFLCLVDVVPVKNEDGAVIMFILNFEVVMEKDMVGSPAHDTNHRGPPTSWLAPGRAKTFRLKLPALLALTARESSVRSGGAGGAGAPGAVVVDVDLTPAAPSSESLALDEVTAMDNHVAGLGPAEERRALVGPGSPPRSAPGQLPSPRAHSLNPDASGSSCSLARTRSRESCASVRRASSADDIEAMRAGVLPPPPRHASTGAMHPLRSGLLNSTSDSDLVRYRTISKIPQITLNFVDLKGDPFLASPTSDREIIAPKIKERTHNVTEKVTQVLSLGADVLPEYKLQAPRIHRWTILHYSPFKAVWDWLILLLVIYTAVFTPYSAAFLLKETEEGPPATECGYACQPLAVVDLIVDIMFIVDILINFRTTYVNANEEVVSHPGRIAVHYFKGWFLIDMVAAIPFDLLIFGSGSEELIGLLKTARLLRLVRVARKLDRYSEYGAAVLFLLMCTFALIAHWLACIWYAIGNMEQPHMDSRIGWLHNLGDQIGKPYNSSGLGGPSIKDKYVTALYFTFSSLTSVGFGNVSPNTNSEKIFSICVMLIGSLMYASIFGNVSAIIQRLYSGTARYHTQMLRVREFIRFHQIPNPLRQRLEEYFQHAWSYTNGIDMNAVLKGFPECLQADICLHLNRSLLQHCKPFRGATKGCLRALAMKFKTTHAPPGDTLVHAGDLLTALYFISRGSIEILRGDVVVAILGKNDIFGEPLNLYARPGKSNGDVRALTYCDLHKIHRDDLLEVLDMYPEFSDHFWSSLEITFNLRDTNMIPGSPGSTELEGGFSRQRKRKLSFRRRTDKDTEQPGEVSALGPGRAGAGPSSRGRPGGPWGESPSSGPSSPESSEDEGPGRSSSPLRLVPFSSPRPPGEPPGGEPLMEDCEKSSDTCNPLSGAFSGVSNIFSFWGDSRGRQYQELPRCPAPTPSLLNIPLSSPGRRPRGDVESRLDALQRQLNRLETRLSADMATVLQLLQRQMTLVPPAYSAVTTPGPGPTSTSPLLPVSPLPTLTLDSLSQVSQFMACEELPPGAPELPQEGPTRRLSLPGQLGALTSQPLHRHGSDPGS

| SMILES | hERG current change (%, negative = inhibition) at 1uM [%] |
| --- | --- |
| Cc1cc(N2CCC(C)CC2)nc2cccc(O)c12 | 4.11 |
| CCCCC(=O)NC(=S)Nc1cccc(NC(=O)c2ccccc2)c1 | 11.3 |
| O=C(N/N=C/c1ccoc1)c1cccc([N+](=O)[O-])c1 | 14 |
| COc1ccccc1NS(=O)(=O)c1cccc(NC(=O)Cc2cccs2)c1 | 7.33 |
| COc1ccc(CCNC(=O)COC(=O)C2CCCCC2)cc1 | 11.6 |
| O=C(Nc1nccs1)c1ccc(-c2ccc([N+](=O)[O-])cc2)o1 | 16 |
| COc1ccc(C)cc1NC(=O)C1CC(=O)OC12CCCCC2 (stereo not drawn) | 11.3 |
| Cc1ccc2c(c1)nnn2C1CCN(CC(=O)NCc2ccccc2F)CC1 | -20.4 |
| CC(C)c1ccccc1NC(=S)NCc1nc2ccccc2[nH]1 | 14.3 |
| COc1ccc(NC(=O)C/C(C)=N/NC(=O)c2ccncc2)c([N+](=O)[O-])c1 | -4.09 |
| COCCNC(=S)N(CCc1c(C)[nH]c2ccc(F)cc12)Cc1ccc(C)cc1 | 13.7 |
| CCCC[C@@H]1CNC(=S)N1CCC12CC3CC(CC(C3)C1)C2 | 19.2 |
| COc1cc(/C=N/NC(=O)c2cc(-c3ccccc3)sc2N)cc(OC)c1OC | 5.12 |
| COc1ccc(-n2cccc2/C=C2\C(=N)N3N=C(C(C)C)SC3=NC2=O)cc1 | 11.5 |
| O=c1[nH]c(=O)n(-c2ccccc2)c2c1C(C(F)(F)F)(C(F)(F)F)N=C(C1CCCCC1)N2 | 8.95 |
| O=C(Cc1nnc(NC(=O)c2ccccc2)s1)N/N=C\c1ccc(O)c(O)c1 | 18.2 |
| O=C(CNS(=O)(=O)c1ccc2ccccc2c1)NCCc1ccccn1 | 12.7 |
| O=C(O)CCNC(=S)Nc1cccc(F)c1 | 15.5 |
| O=C(CCCN1C(=O)/C(=C/c2ccc(F)cc2)SC1=S)NCCCn1ccnc1 | -20.3 |

| SMILES | hERG current change (%, negative = inhibition) at 1uM [%] |
| --- | --- |
| O=C1CC(N(O)c2ccccc2)C(=O)N1c1cc(Cl)cc(Cl)c1 (stereo not drawn) | 13 |
| CCOC(=O)c1[nH]c2cc(OC)c(OC)cc2c1NC(=O)CCN1CCSCC1 | 6.99 |
| CN(C)c1ccc(CNc2ncnc3sccc23)cc1 | 2.59 |
| CCCCn1c(-c2cccnc2)n[nH]c1=S | 12.8 |
| CSc1nc(NCc2ccccc2)c2c3c(sc2n1)CN(C)CC3 | -64.2 |
| CCc1ccc(NC(=O)Nc2cccs2)cc1 | 21.2 |
| CN(C)c1nc(-c2ccc([N+](=O)[O-])cc2)cs1 | 7.93 |
| COc1ccc(C(=O)N(c2ccccn2)C2CCCCC2)c(OC)c1 | 10.6 |
| CC(C)(C)Nc1nc(Cl)nc(NC(C)(C)C)n1 | 5.68 |
| CCOC(=O)NC(=O)c1cn(Nc2ncc(Cl)cc2C(F)(F)F)c(=O)[nH]c1=O | 11.1 |
| COc1ccc(-n2c(Cc3cc(=O)[nH]c(=O)[nH]3)nnc2SCc2ccccc2)cc1 | 5.7 |
| CCN(CC(=O)Nc1ccc(NC(C)=O)cc1)C(=O)c1ccccc1Sc1ccccc1C#N | 15 |
| CCCN(CCC)CCNC(=O)CCC(=O)Nc1ccc2nc(N3CCOCC3)cc(C)c2c1 | 8.82 |
| COc1ccccc1NC(=O)CSc1nnc(C)n1Cc1ccccc1 | 3.31 |
| O=S(=O)(Nc1nc2ccccc2nc1NCc1ccco1)c1cccs1 | 8.81 |
| COc1ccc(Br)cc1/C=N/NC(=O)c1cc(Br)ccc1O | 16 |
| O=C(O)Cc1ccc2oc(-c3ccccn3)nc2c1 | 13.5 |
| C=CCn1c(C(C)NC(=O)C(C)(C)C)nc2ccccc21 (stereo not drawn) | 8.93 |
| CCOC(=O)c1oc2ccc(S(=O)(=O)n3nc(-c4ccccc4)cc3N)cc2c1C | 15.2 |

| SMILES | hERG current change (%, negative = inhibition) at 1uM [%] |
| --- | --- |
| Cc1cccc(-c2nc(-c3ccncc3)no2)c1 | 11.9 |
| Cc1cnc(C(=O)Nc2cccc(-c3nnc4n3CCCCC4)c2)cn1 | 11.7 |
| O=C(NN=C1C2CC3CC(C2)CC1C3)c1cccs1 | 13.5 |
| COc1ccc(C2CC(=O)C(C=NCCO)=C(O)C2)cc1OC (stereo not drawn) | 13.4 |
| C=CCn1c(Cc2cccs2)nnc1SCC(=O)NCc1ccco1 | 3.17 |
| COc1ccc(Nc2nc(N)nc(CN3CCC(C)CC3)n2)cc1 | -50.7 |
| CCOc1ccc(Nc2nc(Cc3nnc(SCC(=O)NCc4ccco4)n3CC)cs2)cc1 | 5.18 |
| CCCN(C(=O)COc1ccc(C(C)=O)cc1OC)C1CCS(=O)(=O)C1 (stereo not drawn) | 8.73 |
| O=C(Cn1ccc(NC(=O)OCc2ccccc2)nc1=O)NCCCn1ccnc1 | 16.6 |
| O=C(Cc1cccs1)N(c1ccc(Cl)cc1)C1C=CS(=O)(=O)C1 (stereo not drawn) | 8.53 |
| Cc1ccnc(NC(=O)C2CCN(S(=O)(=O)c3c(C)c(C)cc(C)c3C)CC2)c1 | 1.82 |
| Cc1ccc(C)c(S(=O)(=O)Nc2ccc3sc(C)nc3c2)c1 | 8.02 |
| COC(=O)C1C(c2ccc(Cl)cc2)NC(c2ccc(Cl)cc2)C(C(=O)OC)S1(=O)=O (stereo not drawn) | 11.2 |
| COC(=O)CN1C(=O)C(C)(C)Oc2ccc(C(=O)NC3CCCC3)cc21 | 14.8 |
| COC(=O)c1cnn(-c2ccc(F)cc2F)c1/C=N/NC(N)=S | 5.86 |
| CC(C)NC(=O)Cn1cc(C(=O)c2ccccc2F)c2ccccc21 | 14 |
| Cc1c(Cl)cccc1NC(=O)CC(NCCN1CCOCC1)C(=O)O (stereo not drawn) | 14.4 |
| CC1CN(C(=O)CCNS(=O)(=O)c2ccc(Br)cc2)CC(C)O1 (stereo not drawn) | 7.14 |
| Cc1ccc(S(=O)(=O)N2[C@@H](c3ccccc3)C(C(=O)O)=CC[C@H]2c2ccc(C(C)C)cc2)cc1 | 19.7 |
